The record followed here is the BET-seq Pho4 binding data (Le et al. 2018).

Some of the results follow. These are noisy estimates, calculated here from bound and input reads.

The assay has as its target T1, Pho4 (S. cerevisiae) (UniProt P07270).
T1 sequence: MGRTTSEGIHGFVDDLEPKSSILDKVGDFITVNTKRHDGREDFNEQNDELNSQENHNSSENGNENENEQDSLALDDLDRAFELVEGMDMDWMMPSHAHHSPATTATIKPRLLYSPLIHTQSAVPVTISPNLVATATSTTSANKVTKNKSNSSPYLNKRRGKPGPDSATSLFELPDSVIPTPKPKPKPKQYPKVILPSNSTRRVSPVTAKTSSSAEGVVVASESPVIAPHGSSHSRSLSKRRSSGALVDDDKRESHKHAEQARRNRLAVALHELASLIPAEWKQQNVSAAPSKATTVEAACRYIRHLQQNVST
The assay is described as follows: relative binding free energy (BET-seq); higher = weaker binding. The following applies: reference: library average.
Consider TTCCGCACGTGAGGGG, for which the “relative binding free energy” value was determined as 0.03 kcal/mol.
Regarding GGCAACACGTGTTTGG, the “relative binding free energy” value came to 0.19 kcal/mol.
The value for GTGAGCACGTGGCCGG was -0.23 kcal/mol; that for TATTGCACGTGATAGT was 0.12 kcal/mol.
The value for GTGGCCACGTGTAGGG was -0.06 kcal/mol; that for GTATGCACGTGTCTTG was -0.03 kcal/mol.
The value for TGAGACACGTGAGTGA was 0.27 kcal/mol; that for TTGAGCACGTGCGCTG was -0.16 kcal/mol; that for CTTGTCACGTGTGCAT was -0.09 kcal/mol.
Consider GTGGTCACGTGCGGAT, for which the “relative binding free energy” value amounted to 0.03 kcal/mol.
The value for GTCGGCACGTGATTTT was 0.14 kcal/mol; that for GTACTCACGTGTTGGA was 0.46 kcal/mol.
Consider GGAAGCACGTGTGCGT, for which the “relative binding free energy” value is -0.02 kcal/mol.
In the case of TAGTACACGTGCGGTA, the “relative binding free energy” value came to 0 kcal/mol.
Regarding TTTTTCACGTGGCAGG, the “relative binding free energy” value worked out at 0.32 kcal/mol.
The value for TGTATCACGTGCGTAT was 0.18 kcal/mol; that for GAGCGCACGTGGGTCG was -0.2 kcal/mol.
The value for TGGCGCACGTGGCCGG was -0.28 kcal/mol.
As to TGGTCCACGTGTGTAG, the “relative binding free energy” value was 0.03 kcal/mol.
The value for GCTGCCACGTGAGGGG was 0.08 kcal/mol.
Turning to GGGTTCACGTGTCAGA, the “relative binding free energy” value is 0.42 kcal/mol.
The value for GGGGCCACGTGGAAGT was 0 kcal/mol.
The value for TGGAGCACGTGACTTG was 0.05 kcal/mol; that for TAAAGCACGTGTTGTC was -0.12 kcal/mol; that for AGGGGCACGTGTGCCG was -0.04 kcal/mol.
For TTTTCCACGTGGGTAG, the “relative binding free energy” value was -0.07 kcal/mol.
The value for AGGTACACGTGCATTT was 0.15 kcal/mol; that for TAAAGCACGTGTACGG was 0 kcal/mol; that for GCGATCACGTGTGGCG was 0.21 kcal/mol.
In the case of TATTGCACGTGTGTCT, the “relative binding free energy” value is -0.07 kcal/mol.
The value for ATGTTCACGTGGTACT was 0.11 kcal/mol; that for CTCTTCACGTGTATTT was 0.24 kcal/mol.
The value for GGATGCACGTGATTTT was 0.17 kcal/mol; that for GGGTGCACGTGTCATA was -0.08 kcal/mol.
The value for AATAGCACGTGGATAG was 0.08 kcal/mol; that for GATTTCACGTGAGCGT was 0.2 kcal/mol.
With TGGAGCACGTGTTGTA, the “relative binding free energy” value is -0.01 kcal/mol.
Consider TGATTCACGTGGGTAA, for which the “relative binding free energy” value was found to be 0.14 kcal/mol.
In the case of CTAGGCACGTGGAAGT, the “relative binding free energy” value came out at 0.05 kcal/mol.
The value for AAGTGCACGTGTGGTT was 0.06 kcal/mol; that for TTATGCACGTGCGTGA was -0.12 kcal/mol; that for TACGTCACGTGTGGTG was 0.07 kcal/mol.
For the sequence TGGATCACGTGCGGAA, the “relative binding free energy” value is 0.26 kcal/mol.
For TGCAGCACGTGAGGGC, the “relative binding free energy” value is 0.04 kcal/mol.
As for TGGATCACGTGTACTG, the “relative binding free energy” value was determined as 0.22 kcal/mol.
As to AAGGGCACGTGTCGGC, the “relative binding free energy” value is -0.2 kcal/mol.
The value for CTGGTCACGTGATGGG was 0.06 kcal/mol; that for GGCTGCACGTGTGTAG was -0.03 kcal/mol; that for GTAAACACGTGCGGGT was 0.12 kcal/mol.
Regarding TGTTTCACGTGTAGAC, the “relative binding free energy” value stood at 0.36 kcal/mol.
The value for TTGGGCACGTGGCGTA was -0.23 kcal/mol.
The value for TCTTTCACGTGACTGG was 0.54 kcal/mol; that for GATAGCACGTGTGGGA was 0.16 kcal/mol.
The value for GAAATCACGTGGATGG was 0.23 kcal/mol.
GTGAACACGTGAATTG: the “relative binding free energy” value is 0.4 kcal/mol.
On to TTGGACACGTGTAGTA, for which the “relative binding free energy” value came out at 0.05 kcal/mol.
The value for CTTTGCACGTGTCTTT was 0.02 kcal/mol; that for GGAGGCACGTGTAAAG was -0.13 kcal/mol.
The value for TGCGTCACGTGGGGCC was -0.01 kcal/mol.
The value for TTCGGCACGTGTTTGG was -0.01 kcal/mol; that for TTTGTCACGTGGGTGA was -0.06 kcal/mol.
Take GAATCCACGTGTGGGG: the “relative binding free energy” value is 0.04 kcal/mol.
The value for TGTATCACGTGTGCTT was 0.12 kcal/mol.
